# The supplement of paper PMC8728848
# This is one part of the list.
# Experiments:
# Assay in all cases: glycan array binding signal (z-score within array); higher = stronger binding
# Details in all cases: glycan notation: IUPAC condensed, linker removed
# [1] = biological target: Gal(b1-4)GlcNAc(b1-3)Gal(b1-4)GlcNAc(b1-2)Man(a1-3)[Gal(b1-4)GlcNAc(b1-3)Gal(b1-4)GlcNAc(b1-2)Man(a1-6)]Man(b1-4)GlcNAc(b1-4)[Fuc(a1-6)]GlcNAc
# Outline: (§1)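 Negative Z-scores can be read as non-binding. The Z-score is calculated within each array and then averaged across arrays of one protein sequence at different concentrations or buffers and across linkers. Arrays, 3228 in all, were curated from the Consortium for Functional Glycomics database and kept only where the protein sequence was available.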
# [2] = biological target: Gal(b1-4)GlcNAc(b1-3)Gal(b1-4)GlcNAc(b1-2)[Gal(b1-4)GlcNAc(b1-3)Gal(b1-4)GlcNAc(b1-6)]Man(a1-6)[Gal(b1-4)GlcNAc(b1-3)Gal(b1-4)GlcNAc(b1-2)Man(a1-3)]Man(b1-4)GlcNAc(b1-4)GlcNAc
# Outline: as §1
# [3] = biological target: Gal(b1-4)GlcNAc(b1-3)Gal(b1-4)GlcNAc(b1-2)[Gal(b1-4)GlcNAc(b1-3)Gal(b1-4)GlcNAc(b1-6)]Man(a1-6)[Gal(b1-4)GlcNAc(b1-3)Gal(b1-4)GlcNAc(b1-2)Man(a1-3)]Man(b1-4)GlcNAc(b1-4)[Fuc(a1-6)]GlcNAc
# Outline: as §1
# [4] = biological target: Gal(b1-4)GlcNAc(b1-3)Gal(b1-4)GlcNAc(b1-3)Gal(b1-4)GlcNAc
# Outline: as §1
# [5] = biological target: Gal(b1-4)GlcNAc(b1-3)Gal(b1-4)GlcNAc(b1-3)Gal(b1-4)GlcNAc(b1-2)Man(a1-3)[Gal(b1-4)GlcNAc(b1-3)Gal(b1-4)GlcNAc(b1-3)Gal(b1-4)GlcNAc(b1-2)Man(a1-6)]Man(b1-4)GlcNAc(b1-4)GlcNAc
# Outline: as §1
# [6] = biological target: Gal(b1-4)GlcNAc(b1-3)Gal(b1-4)GlcNAc(b1-3)Gal(b1-4)GlcNAc(b1-2)Man(a1-3)[Gal(b1-4)GlcNAc(b1-3)Gal(b1-4)GlcNAc(b1-3)Gal(b1-4)GlcNAc(b1-2)Man(a1-6)]Man(b1-4)GlcNAc(b1-4)[Fuc(a1-6)]GlcNAc
# Outline: as §1
# [7] = biological target: Gal(b1-4)GlcNAc(b1-3)Gal(b1-4)GlcNAc(b1-3)Gal(b1-4)GlcNAc(b1-2)[Gal(b1-4)GlcNAc(b1-3)Gal(b1-4)GlcNAc(b1-3)Gal(b1-4)GlcNAc(b1-6)]Man(a1-6)[Gal(b1-4)GlcNAc(b1-3)Gal(b1-4)GlcNAc(b1-3)Gal(b1-4)GlcNAc(b1-2)Man(a1-3)]Man(b1-4)GlcNAc(b1-4)[Fuc(a1-6)]GlcNAc
# Outline: as §1
# [8] = biological target: Gal(b1-4)GlcNAc(b1-3)Gal(b1-4)GlcNAc(b1-3)Gal(b1-4)GlcNAc(b1-3)Gal(b1-4)GlcNAc(b1-2)Man(a1-3)[Gal(b1-4)GlcNAc(b1-3)Gal(b1-4)GlcNAc(b1-3)Gal(b1-4)GlcNAc(b1-3)Gal(b1-4)GlcNAc(b1-2)Man(a1-6)]Man(b1-4)GlcNAc(b1-4)GlcNAc
# Outline: as §1
# [9] = biological target: Gal(b1-4)GlcNAc(b1-3)Gal(b1-4)GlcNAc(b1-3)Gal(b1-4)GlcNAc(b1-3)Gal(b1-4)GlcNAc(b1-2)Man(a1-3)[Gal(b1-4)GlcNAc(b1-3)Gal(b1-4)GlcNAc(b1-3)Gal(b1-4)GlcNAc(b1-3)Gal(b1-4)GlcNAc(b1-2)Man(a1-6)]Man(b1-4)GlcNAc(b1-4)[Fuc(a1-6)]GlcNAc
# Outline: as §1
# [10] = biological target: Gal(b1-4)GlcNAc(b1-3)Gal(b1-4)GlcNAc(b1-3)Gal(b1-4)GlcNAc(b1-3)Gal(b1-4)GlcNAc(b1-2)[Gal(b1-4)GlcNAc(b1-3)Gal(b1-4)GlcNAc(b1-3)Gal(b1-4)GlcNAc(b1-3)Gal(b1-4)GlcNAc(b1-6)]Man(a1-6)[Gal(b1-4)GlcNAc(b1-3)Gal(b1-4)GlcNAc(b1-3)Gal(b1-4)GlcNAc(b1-3)Gal(b1-4)GlcNAc(b1-2)Man(a1-3)]Man(b1-4)GlcNAc(b1-4)[Fuc(a1-6)]GlcNAc
# Outline: as §1
# [11] = biological target: Gal(b1-4)GlcNAc(b1-3)Gal(b1-4)GlcNAc(b1-3)Gal(b1-4)GlcNAc(b1-3)Gal(b1-4)GlcNAc(b1-3)Gal(b1-4)GlcNAc(b1-2)Man(a1-3)[Gal(b1-4)GlcNAc(b1-3)Gal(b1-4)GlcNAc(b1-3)Gal(b1-4)GlcNAc(b1-3)Gal(b1-4)GlcNAc(b1-3)Gal(b1-4)GlcNAc(b1-2)Man(a1-6)]Man(b1-4)GlcNAc(b1-4)GlcNAc
# Outline: as §1
# [12] = biological target: Gal(b1-4)GlcNAc(b1-3)Gal(b1-4)GlcNAc(b1-3)Gal(b1-4)GlcNAc(b1-3)Gal(b1-4)GlcNAc(b1-3)Gal(b1-4)GlcNAc(b1-2)Man(a1-3)[Gal(b1-4)GlcNAc(b1-3)Gal(b1-4)GlcNAc(b1-3)Gal(b1-4)GlcNAc(b1-3)Gal(b1-4)GlcNAc(b1-3)Gal(b1-4)GlcNAc(b1-2)Man(a1-6)]Man(b1-4)GlcNAc(b1-4)[Fuc(a1-6)]GlcNAc
# Outline: as §1
# [13] = biological target: Gal(b1-4)GlcNAc(b1-3)Gal(b1-4)GlcNAc(b1-3)Gal(b1-4)GlcNAc(b1-3)Gal(b1-4)GlcNAc(b1-3)Gal(b1-4)GlcNAc(b1-2)[Gal(b1-4)GlcNAc(b1-3)Gal(b1-4)GlcNAc(b1-3)Gal(b1-4)GlcNAc(b1-3)Gal(b1-4)GlcNAc(b1-3)Gal(b1-4)GlcNAc(b1-6)]Man(a1-6)[Gal(b1-4)GlcNAc(b1-3)Gal(b1-4)GlcNAc(b1-3)Gal(b1-4)GlcNAc(b1-3)Gal(b1-4)GlcNAc(b1-3)Gal(b1-4)GlcNAc(b1-2)Man(a1-3)]Man(b1-4)GlcNAc(b1-4)[Fuc(a1-6)]GlcNAc
# Outline: as §1
# [14] = biological target: Gal(b1-4)GlcNAc(b1-3)Gal(b1-4)GlcNAc(b1-3)Gal(b1-4)GlcNAc(b1-3)Gal(b1-4)GlcNAc(b1-3)Gal(b1-4)GlcNAc(b1-3)Gal(b1-4)GlcNAc(b1-2)Man(a1-3)[Gal(b1-4)GlcNAc(b1-3)Gal(b1-4)GlcNAc(b1-3)Gal(b1-4)GlcNAc(b1-3)Gal(b1-4)GlcNAc(b1-3)Gal(b1-4)GlcNAc(b1-3)Gal(b1-4)GlcNAc(b1-2)Man(a1-6)]Man(b1-4)GlcNAc(b1-4)GlcNAc
# Outline: as §1
# [15] = biological target: Gal(b1-4)GlcNAc(b1-3)Gal(b1-4)GlcNAc(b1-3)GalNAc
# Outline: as §1
# [16] = biological target: Gal(b1-4)GlcNAc(b1-3)Gal(b1-4)GlcNAc(b1-3)[Gal(b1-4)GlcNAc(b1-3)Gal(b1-4)GlcNAc(b1-6)]GalNAc
# Outline: as §1
# [17] = biological target: Gal(b1-4)GlcNAc(b1-3)Gal(b1-4)GlcNAc(b1-6)[Gal(b1-3)]GalNAc
# Outline: as §1
# [18] = biological target: Gal(b1-4)GlcNAc(b1-3)Gal(b1-4)[Fuc(a1-3)]GlcNAc(b1-3)Gal(b1-4)[Fuc(a1-3)]GlcNAc
# Outline: as §1
# [19] = biological target: Gal(b1-4)GlcNAc(b1-3)GalNAc
# Outline: as §1
# [20] = biological target: Gal(b1-4)GlcNAc(b1-3)[Fuc(a1-3)GlcNAc(b1-6)]Gal(b1-4)Glc
# Outline: as §1
# [21] = biological target: Gal(b1-4)GlcNAc(b1-3)[Gal(b1-4)GlcNAc(b1-6)]Gal(b1-4)GlcNAc
# Outline: as §1
# [22] = biological target: Gal(b1-4)GlcNAc(b1-3)[GlcNAc(b1-6)]Gal(b1-4)GlcNAc
# Outline: as §1
# [23] = biological target: Gal(b1-4)GlcNAc(b1-6)Gal(b1-4)GlcNAc
# Outline: as §1
# [24] = biological target: Gal(b1-4)GlcNAc(b1-6)GalNAc
# Outline: as §1
# [25] = biological target: Gal(b1-4)GlcNAc(b1-6)[Gal(b1-3)]GalNAc
# Outline: as §1
# [26] = biological target: Gal(b1-4)GlcNAc(b1-6)[Gal(b1-4)GlcNAc(b1-3)]GalNAc
# Outline: as §1
# Gal(b1-4)GlcNAc6P = biological target: Gal(b1-4)GlcNAc6P
# Outline: as §1
# Gal(b1-6)Gal = biological target: Gal(b1-6)Gal
# Outline: as §1
# Gal3S(b1-3)GalNAc = biological target: Gal3S(b1-3)GalNAc
# Outline: as §1
# Gal3S(b1-3)GlcNAc = biological target: Gal3S(b1-3)GlcNAc
# Outline: as §1
# [27] = biological target: Gal3S(b1-3)[Fuc(a1-4)]GlcNAc
# Outline: as §1
# Gal3S(b1-4)Glc = biological target: Gal3S(b1-4)Glc
# Outline: as §1
# Gal3S(b1-4)Glc6S = biological target: Gal3S(b1-4)Glc6S
# Outline: as §1
# Gal3S(b1-4)GlcNAc = biological target: Gal3S(b1-4)GlcNAc
# Outline: as §1
# [28] = biological target: Gal3S(b1-4)[Fuc(a1-3)]Glc6S
# Outline: as §1
# [29] = biological target: Gal3S(b1-4)[Fuc(a1-3)]GlcNAc
# Outline: as §1
# [30] = biological target: Gal3S(b1-4)[Fuc(a1-3)]GlcNAc6S
# Outline: as §1
# Gal3S4S(b1-4)GlcNAc = biological target: Gal3S4S(b1-4)GlcNAc
# Outline: as §1
# Gal3S6S(b1-4)GlcNAc = biological target: Gal3S6S(b1-4)GlcNAc
# Outline: as §1
# Gal3S6S(b1-4)GlcNAc6S = biological target: Gal3S6S(b1-4)GlcNAc6S
# Outline: as §1
# Gal4S(b1-4)GlcNAc = biological target: Gal4S(b1-4)GlcNAc
# Outline: as §1
# Gal4S6S(b1-4)GlcNAc = biological target: Gal4S6S(b1-4)GlcNAc
# Outline: as §1
# Gal6P(b1-4)GlcNAc = biological target: Gal6P(b1-4)GlcNAc
# Outline: as §1
# Gal6S(b1-3)GlcNAc = biological target: Gal6S(b1-3)GlcNAc
# Outline: as §1
# Gal6S(b1-3)GlcNAc6S = biological target: Gal6S(b1-3)GlcNAc6S
# Outline: as §1
binder,measurement,setting,value
"BC2LB (Burholderia cenocepacia), B4EH85_BURCJ (protein) MGSSHHHHHHSSGENLYFQGHMSQPFTHDDLYALLQLAGNDATAVQANGDQAVLDRMRQFMTAQLVEKLPQYDVFVDIATIPYSFDVGSWQNKVKTDAAGEVVACTVTWAGAPGVLPGAAAKFGVGAVVNYFSKATPH",glycan array binding signal (z-score),[1],-0.027
same,glycan array binding signal (z-score),[2],11.3
same,glycan array binding signal (z-score),[3],-0.216
same,glycan array binding signal (z-score),[4],-0.306
same,glycan array binding signal (z-score),[5],0.179
same,glycan array binding signal (z-score),[6],-0.032
same,glycan array binding signal (z-score),[7],-0.169
same,glycan array binding signal (z-score),[8],-0.045
same,glycan array binding signal (z-score),[9],0.166
same,glycan array binding signal (z-score),[10],-0.198
same,glycan array binding signal (z-score),[11],-0.104
same,glycan array binding signal (z-score),[12],0.012
same,glycan array binding signal (z-score),[13],-0.058
same,glycan array binding signal (z-score),[14],-0.107
same,glycan array binding signal (z-score),[15],-0.04
same,glycan array binding signal (z-score),[16],-0.099
same,glycan array binding signal (z-score),[17],-0.02
same,glycan array binding signal (z-score),[18],-0.201
same,glycan array binding signal (z-score),[19],-0.332
same,glycan array binding signal (z-score),[20],-0.249
same,glycan array binding signal (z-score),[21],-0.157
same,glycan array binding signal (z-score),[22],-0.082
same,glycan array binding signal (z-score),[23],-0.153
same,glycan array binding signal (z-score),[24],-0.119
same,glycan array binding signal (z-score),[25],0.261
same,glycan array binding signal (z-score),[26],-0.202
same,glycan array binding signal (z-score),Gal(b1-4)GlcNAc6P,-0.292
same,glycan array binding signal (z-score),Gal(b1-6)Gal,-0.317
same,glycan array binding signal (z-score),Gal3S(b1-3)GalNAc,-0.244
same,glycan array binding signal (z-score),Gal3S(b1-3)GlcNAc,-0.064
same,glycan array binding signal (z-score),[27],0.995
same,glycan array binding signal (z-score),Gal3S(b1-4)Glc,1.52
same,glycan array binding signal (z-score),Gal3S(b1-4)Glc6S,0.282
same,glycan array binding signal (z-score),Gal3S(b1-4)GlcNAc,0.173
same,glycan array binding signal (z-score),[28],-0.086
same,glycan array binding signal (z-score),[29],-0.25
same,glycan array binding signal (z-score),[30],0.149
same,glycan array binding signal (z-score),Gal3S4S(b1-4)GlcNAc,-0.244
same,glycan array binding signal (z-score),Gal3S6S(b1-4)GlcNAc,-0.145
same,glycan array binding signal (z-score),Gal3S6S(b1-4)GlcNAc6S,-0.253
same,glycan array binding signal (z-score),Gal4S(b1-4)GlcNAc,-0.359
same,glycan array binding signal (z-score),Gal4S6S(b1-4)GlcNAc,-0.243
same,glycan array binding signal (z-score),Gal6P(b1-4)GlcNAc,-0.153
same,glycan array binding signal (z-score),Gal6S(b1-3)GlcNAc,-0.37
same,glycan array binding signal (z-score),Gal6S(b1-3)GlcNAc6S,-0.312
